Laboratory results published in patent US20240034764A1 (JOINT STOCK COMPANY BIOCAD, published 2024).

Key:
murine IL-10Rα receptor = target: T1, murine IL-10Rα receptor (murine, UniProt Q61727 17-241, limits assumed); assay: BLI (OctetRed96), IL-10-Fc immobilised on AR2G sensors, receptor in solution, 1:1 model
T1 construct: soluble protein in wells of the BLI assay, construct unknown; also called Murine IL-10 receptor
T1 sequence (looked up): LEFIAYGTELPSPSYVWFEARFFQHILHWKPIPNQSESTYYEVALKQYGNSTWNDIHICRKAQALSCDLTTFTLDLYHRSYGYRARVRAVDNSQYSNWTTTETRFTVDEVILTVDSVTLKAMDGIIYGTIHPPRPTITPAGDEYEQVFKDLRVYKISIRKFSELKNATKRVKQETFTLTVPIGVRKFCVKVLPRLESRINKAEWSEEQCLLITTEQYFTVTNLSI
Description: (§1) Binding of human IL-10-Fc of the invention to the human IL-10 receptor, as well as to the cynomolgus, murine and rabbit IL-10Rα receptors, was assessed by bio-layer interferometry using the OctetRed96 device (Pall). IL-10-Fc was bound to AR2G sensors according to the manufacturer's instructions for the preparation and immobilization of AR2G sensors. The sensors with immobilized IL-10 were then immersed into wells containing the human, macaque, murine or rabbit IL-10Rα receptor. Following the association of interleukin and the receptor, the sensors were immersed in the working solution for the subsequent dissociation stage. The resulting sensograms, after subtracting a reference signal, were analyzed using Octet Data Analysis software (Version 8.0) in accordance with the standard procedure and using 1:1 interaction model. According to the data obtained (Table 1), IL-10-Fc of the invention binds to the human, cynomolgus, murine IL-10 receptors.

[1] = target: T2, extracellular portion of the Macaca cynomolgus (fascicularis) IL-10Ra receptor with EPEA tag (Macaca cynomolgus (fascicularis), UniProt A0A2K5WJ66 22-233); assay: as above
T2 construct: extracellular domain; the same vector was used; also called cynomolgus IL-10Rα receptor; Cynomolgus IL-10 receptor
T2 sequence: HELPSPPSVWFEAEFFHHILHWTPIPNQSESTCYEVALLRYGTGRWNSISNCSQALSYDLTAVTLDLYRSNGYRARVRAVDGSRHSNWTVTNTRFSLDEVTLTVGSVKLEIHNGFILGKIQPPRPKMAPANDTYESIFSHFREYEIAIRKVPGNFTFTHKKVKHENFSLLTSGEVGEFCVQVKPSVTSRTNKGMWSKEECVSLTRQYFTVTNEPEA
Description: as §1

[2] = target: T3, IL-10Rα receptor on MC/9 mouse mast cells (mouse, UniProt Q61727 17-575); assay: cell-based or functional assay
T3 sequence (looked up): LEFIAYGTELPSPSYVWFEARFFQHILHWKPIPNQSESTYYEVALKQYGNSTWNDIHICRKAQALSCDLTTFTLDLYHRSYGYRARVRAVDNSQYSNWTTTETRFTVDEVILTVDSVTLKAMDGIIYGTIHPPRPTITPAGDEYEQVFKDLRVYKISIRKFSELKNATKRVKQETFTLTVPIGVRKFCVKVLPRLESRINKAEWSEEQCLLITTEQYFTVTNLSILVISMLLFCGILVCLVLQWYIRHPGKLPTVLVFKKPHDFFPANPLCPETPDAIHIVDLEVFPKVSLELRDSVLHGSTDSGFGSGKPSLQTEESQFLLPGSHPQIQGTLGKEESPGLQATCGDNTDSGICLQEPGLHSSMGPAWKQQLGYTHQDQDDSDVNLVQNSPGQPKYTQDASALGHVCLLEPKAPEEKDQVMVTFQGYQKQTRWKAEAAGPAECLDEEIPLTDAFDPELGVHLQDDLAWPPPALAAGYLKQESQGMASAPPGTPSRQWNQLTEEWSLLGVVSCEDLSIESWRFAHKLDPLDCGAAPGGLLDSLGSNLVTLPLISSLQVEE

Kd (murine IL-10Rα receptor): 2.1 nM
Kd [1]: 3.7 nM
half maximal effective concentration (EC50), proliferation of MC/9 cells in the presence of IL4 (Alamar Blue) [2]: 0.0533 nM
B1: immunocytokine (fusion protein) based on IL-10 and human IgG1 Fc fragment of the invention (IL-10-Fc) (Fc fusion)
chain: [omitted - human IgG1 Fc with changes]GGSGGGPGSGGSPGQGTQSENSCTHFPGNLPNMLRDLRDAFSRVKTFFQMKDQLDNLLLKESLLEDFKGYLGCQALSEMIQFYLEEVMPQAENQDPDIKAHVNSLGENLKTLRLRLRRCHRFLPCENKSKAVEQVKNAFNKLQEKGIYKAMSEFDIFINYIEAYMTMKIRN
notes: Produced in CHO cells, purified on protein A; also called immunocytokine of the invention; immunocytokine based on IL-10 and Fc
